Results reported in PubChem BioAssay (NCI).
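Step 1: Grow cells in 96-well plates. Step 2: Expose to compound for 48 hours at 5 concentrations. Step 3: Interpolate endpoints linearly; if unreached, use highest concentration. GI50 marks 50% less growth.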 Some entries of the source have several records that differ or are many. This list holds those alone. An entry can have further records. For some of these results: Results that share an entry are repeats in other runs, samples, wells, individuals or studies. What stands in brackets tells the records apart. Letters hold for one entry only.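 The concentration for full growth arrest is given as TGI.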 For some of these results: Records of one sample usually come from different ranges of test concentrations, which the source does not state; a value can be the end of its range.

Columns and labels:
Assay in all cases: DTP human tumour cell line panel, 48 h
HL-60(TB) leukemia = tested on: HL-60(TB) leukemia
K-562 leukemia = tested on: K-562 leukemia
SR leukemia = tested on: SR leukemia
CCRF-CEM leukemia = tested on: CCRF-CEM leukemia

SMILES | TGI (HL-60(TB) leukemia) | GI50 (K-562 leukemia) | TGI (SR leukemia) | TGI (CCRF-CEM leukemia)
Cc1ccc(S(=O)(=O)SC/C=C\CSS(=O)(=O)c2ccc(C)cc2)cc1 | 2.49 µM [sample A, mean of 3 tests] and 59.9 µM [sample B, 1 test] | 190 nM [sample A, mean of 4 tests] and 20.6 µM [sample B, 1 test] | 3.33 µM [sample A, mean of 3 tests] and 57.7 µM [sample B, 1 test] | 
CC1CC(C)CC(C)C(O)/C(C#N)=C/C=C/CC(C2CCCC2C(=O)O)OC(=O)CC(O)C(C)C1 (centres undefined) |  |  |  | 174 nM and 2.83 µM
